# PubChem BioAssay AID686978 (National Center for Advancing Translational Sciences (NCATS), 2013)
# Out of some 420,000 compounds screened, about 64,000 (15%) were called active. The shares of active, inactive and inconclusive entries below differ from those in the screen. The call rests on the fitted dose curve; in most records, active means well fitted inhibition curve with a large enough effect; inconclusive means small, poorly fitted or top-dose-only effect; inactive means flat fitted curve, though single readings scatter. No potency is given beside an inconclusive call; the fits are too rough.
# Experiment: qHTS for Inhibitors of human tyrosyl-DNA phosphodiesterase 1 (TDP1): qHTS in cells in absence of CPT; further: nearly all actives have a fitted effect of over 55% in size
# Conditions: DT40 Tdp1-/- hTDP1 cells, no CPT, ATP luminescence, 48 h; activity change, negative = growth inhibition: at 46.2 µM (top of the series)
# How it was run: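 Compound effects on proliferation are scored in DT40 Tdp1-/-;hTDP1 cells in the absence of CPT. ATP levels (CellTiter-Glo luminescence) are recorded after a ≥48 hr, 37 °C incubation.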
# On the % scale 0 is the no-effect control and ±100 the full control effect; potency means the concentration at half of the fitted maximal effect; tags describe the fitted curve by direction and shape.
SMILES,Potency,"activity change, negative = growth inhibition"
O=C(CCSc1ccccc1)NCCSCc1ccccc1,"inconclusive [inhibitor, single point]",–
Cc1ccc(NC(=O)CSc2nnc(-c3ccccc3)n2C)cc1,–,inactive: -19.6%
COc1ccc(CCNC(=O)/C=C/c2ccc(OC)c(S(=O)(=O)N3CCOCC3)c2)cc1,active: 5.8 µM,–
Cc1ccccc1N1CCN(C2=NC(=O)/C(=C\c3cccs3)S2)CC1,"inconclusive [inhibitor, single point]",–
Cc1cccc(C)c1NC(=O)CN(C)C(=O)c1ccc(-c2cccc(C(F)(F)F)c2)o1,"inconclusive [inhibitor, partial curve]",–
COC(=O)[C@]12CCCCC=C1N(Cc1ccccc1)C(=O)[C@H](CC(=O)NCc1ccccc1)C2,"inconclusive [inhibitor, single point]",–
Cc1ccccc1C(=O)NNC(=O)C1CC(=O)N(c2ccc3c(c2)OCCO3)C1 (stereo not given),–,inactive: -8.46%
CC(C)c1ccccc1NC(=O)C1CCCN(C(=O)c2ccc(Cl)cc2)C1 (stereo not given),"inconclusive [inhibitor, partial curve, poor fit]",–
COCCNC(=O)COC(=O)c1ccc(OCC(=O)Nc2ccccc2OC)c(OC)c1,"inconclusive [inhibitor, partial curve, poor fit]",–
COC(=O)c1cc(NC(=O)CN2C(=O)C(=O)N(C3CCCC3)C2=O)cc(C(=O)OC)c1,–,inactive: 4.73%
CCN(CC)S(=O)(=O)c1c(OC)cc(C)c(Cl)c1C,"inconclusive [inhibitor, partial curve, poor fit]",–
CCN1C(=NCc2ccc(OC)cc2)N[C@@H](c2ccccc2)C(C(=O)OC)=C1C,"inconclusive [inhibitor, partial curve]",–
Cc1ccc(C=O)c([B-](F)(F)F)c1,"inconclusive [inhibitor, single point]",–
COc1cc(OC)c(-n2cc(-c3ccc(Cl)cc3)[nH]c2=O)cc1Cl,"inconclusive [inhibitor, single point]",–
O=C(Nc1cccc2ncccc12)c1cc([N+](=O)[O-])ccc1Cl,"inconclusive [inhibitor, single point]",–
CSc1nc2c(cc1C#N)CCCCC2,–,inconclusive: -34.9% [inhibitor]
CC(C(=O)Nc1ccc(F)cc1Cl)N(C)CCOc1ccccc1 (stereo not given),–,inactive: -21.7%
CCOc1ccccc1Nc1sc(C(=O)c2ccccc2)c(N)c1C(=O)Nc1ccc(F)cc1,active: 13 µM,–
CCN(CC)S(=O)(=O)c1ccc(S(=O)(=O)N(Cc2ccccn2)Cc2ccco2)cc1,"inconclusive [inhibitor, partial curve]",–
CCC(=O)N1CCC1(C)C(=O)Nc1cc(OC)ccc1OC (stereo not given),–,inactive: -2.55%
O=C(CSc1nncs1)N1c2ccccc2Sc2ccccc21,"inconclusive [inhibitor, partial curve]",–
Cn1c(=O)c2c(nc(SCC(=O)Nc3ccccc3F)n2Cc2ccccc2F)n(C)c1=O,active: 2.91 µM,–
CC(=O)Nc1ccc(OCC(O)Cn2c3ccccc3c3ccccc32)c(C)c1 (stereo not given),active: 18.4 µM,–
COc1ccc(O)c(C(=O)N2CCC3(CC2)c2ccccc2[C@@H](NC(=O)c2ccccn2)[C@@H]3OC)c1,–,inactive: -26.7%

SMILES,Potency,"activity change, negative = growth inhibition"
CCN(CC(=O)Nc1ccc(NC(C)=O)cc1)C(=O)Cc1ccc(S(=O)(=O)N2CCOCC2)s1,–,inactive: 13.9%
O=S(=O)(c1ccccc1F)N1CCN(CC(O)c2ccccc2)CC1 (stereo not given),–,inactive: 8.28%
CSc1ccc(CCNC(=O)Cn2nc(C)n3c(cc4sccc43)c2=O)cc1,–,inactive: -7.01%
NC(=O)Cn1nc(C(F)(F)F)c2c1CCCC2,–,inactive: 7.88%
COc1ccc(CNc2ncncc2-c2ccc(N(C)C)cc2)c(OC)c1,"inconclusive [inhibitor, single point]",–
COc1ccccc1NC(=O)CSc1nc2sc3c(c2c(=O)n1-c1ccccc1)CCN(C)C3,"inconclusive [inhibitor, single point]",–
Cc1ccc(NC(=O)c2ccc3c(c2)NC(=O)c2ccccc2S3)c(Cl)c1,active: 3.26 µM,–
CCOC(=O)c1cccc(S(=O)(=O)N(CCO)Cc2cc3cc(OC)ccc3[nH]c2=O)c1,–,inactive: -7.24%
O=C(/C=C/c1ccc(F)cc1)Nc1cccc(S(=O)(=O)Nc2cccc(C(F)(F)F)c2)c1,active: 8.2 µM,–
O=C(CSc1nnc2scc(-c3ccccc3)n12)Nc1ccc2c(c1)OCCO2,"inconclusive [inhibitor, single point]",–
COc1cc(C2CC(=O)Nc3cc4c(cc32)OCO4)cc(OC)c1O (stereo not given),"inconclusive [inhibitor, single point]",–
Cc1ccc(C)c(N2CCN(C(=S)Nc3ccc4nc(N5CCN(C)CC5)cc(C)c4c3)CC2)c1,active: 11.6 µM,–
CCN(CC(=O)N1CCOCC1)S(=O)(=O)c1ccc2ccccc2c1,–,inactive: 15.5%
C/C=C/C1=CC(=O)C[C@H](c2ccc(OC)c(OC)c2)C1,"inconclusive [inhibitor, single point]",–
Cc1ccc(C(=O)c2oc3ccccc3c2NC(=O)COc2ccc(Cl)c(C)c2)cc1,–,inactive: -1.81%
COc1cccc(NC(=O)Cn2c(=O)oc3cc(S(=O)(=O)N4CCCCC4)ccc32)c1,"inconclusive [inhibitor, single point]",–
COc1ccc(OC)c2sc(NC(=O)c3ccc(Br)s3)nc12,"inconclusive [inhibitor, single point]",–
CC(C)Cn1nc(C(=O)Nc2cccc(S(=O)(=O)N3CCCC3)c2)c2ccccc2c1=O,"inconclusive [inhibitor, single point]",–
CN(C(=O)CSc1nc2ccccc2c(=O)n1C)C1CCS(=O)(=O)C1 (stereo not given),"inconclusive [inhibitor, single point]",–
O=c1c2ccccc2nc(SCc2cn3ccsc3n2)n1-c1ccccc1F,"inconclusive [inhibitor, single point]",–
Cc1ccc(CNC(=O)CC[C@H]2O[C@@H](n3cc(C)c(=O)[nH]c3=O)C[C@@H]2O)o1,–,inactive: 5.87%
CSc1nc2ccccc2n1CC(=O)Nc1ccc(C)c(C)c1,"inconclusive [inhibitor, single point]",–
CC(C)COc1ccc(C(=O)N2CCCCC2CCN2CCOCC2)cc1 (stereo not given),"inconclusive [inhibitor, single point]",–
CC(C)CCN(C(=S)NC(=O)C1CCCCC1)c1c(N)n(Cc2ccccc2)c(=O)[nH]c1=O,"inconclusive [inhibitor, single point]",–

SMILES,Potency,"activity change, negative = growth inhibition"
COc1ccc(C(=O)C2CCCN(Cc3c(F)ccc(F)c3F)C2)c(OC)c1 (stereo not given),"inconclusive [inhibitor, single point]",–
CCOC(=O)Cn1nc(NC(=O)COc2ccc(F)cc2)cc1C,–,inactive: -10.3%
N/C(Cc1ccc([N+](=O)[O-])cc1)=N\OC(=O)COc1ccc2ccccc2c1,–,inactive: -4.59%
O=C(NCCC1=CCCCC1)c1ccc(F)c(S(=O)(=O)N2CCOCC2)c1,"inconclusive [inhibitor, full curve, poor fit]",–
CC(C)CN(C(=O)c1ccc(C(F)(F)F)cc1)c1c(N)n(CC(C)C)c(=O)[nH]c1=O,–,inactive: -2.99%
Cn1ncc(-c2ccno2)c1C(=O)O,–,inactive: 1.68%
COC(=O)c1ccccc1NC(=O)C1CCCN(S(=O)(=O)c2ccccc2)C1 (stereo not given),"inconclusive [inhibitor, single point]",–
CCOC(=O)CN(C(=O)CSc1nnc2c(n1)[nH]c1ccccc12)c1ccccc1,"inconclusive [inhibitor, partial curve]",–
CCCN(Cc1cc2ccccc2[nH]c1=O)C(=O)c1cccc([N+](=O)[O-])c1,"inconclusive [inhibitor, single point]",–
C[C@@H]1CN([C@@H](C)CO)C(=O)c2cc(Br)cnc2O[C@H]1CN(C)S(=O)(=O)c1ccccc1,–,inactive: -5.24%
Cc1nnc(NC(=O)CSc2nc(C(C)C)nc3sc(C)c(C)c23)s1,active: 8.2 µM,–
O=C(c1cccc(Cl)c1)N1CCN(CCCc2ccccc2)CC1,–,inactive: -10.1%
O=C1N=c2ccccc2=C1c1sc(=S)n(CC2CCCO2)c1O (stereo not given),–,inactive: -11.6%
CN(CC(=O)Nc1ccc(Cl)c(C(F)(F)F)c1)C(=O)CCNC(=O)c1ccco1,"inconclusive [inhibitor, single point]",–
O=[N+]([O-])/C=C/c1cn(Cc2ccccc2)c2ccccc12,active: 11.6 µM,–
N#Cc1c(NC(=O)c2ccc(Cn3cc(Br)cn3)o2)sc2c1CCCCCC2,–,inactive: -12%
Cc1cc(C(=O)CSc2nc(N)cc(N)n2)c(C)n1-c1cccc(F)c1,"inconclusive [inhibitor, partial curve]",–
CNC(=O)c1c(NC(=O)c2ccc(S(=O)(=O)N3CCCCC3)cc2)sc2c1CCN(C(C)C)C2,"inconclusive [inhibitor, single point]",–
Cc1cccc(NC(=O)CSc2n[nH]c(-c3ccncc3)n2)c1,–,inactive: -11.1%
Cc1ccc(OCC(=O)Nc2ccc(N3CCN(C(=O)c4ccc(C)cc4)CC3)cc2)cc1,"inconclusive [inhibitor, partial curve, poor fit]",–
Fc1ccc(-c2noc(C3CCN(Cc4cccnc4)CC3)n2)cc1,"inconclusive [inhibitor, single point]",–
COc1cc(OC)cc(-c2c(C#Cc3ccsc3)c3cc(-c4ccc(CN5CCOCC5)cc4)ccc3n2C)c1,"inconclusive [inhibitor, partial curve]",–
